The source of these data is the supplement of paper PMC10681739.

± gives the standard deviation of the averaged measurements. In all, about 4,100 sequences were measured (“arbitrary fluorescence units”: median about 780, highest 2% from about 22,000 on). The list shows a part of the results.

In the assay the target is T1, ETS1 (UniProt P14921).
T1 sequence: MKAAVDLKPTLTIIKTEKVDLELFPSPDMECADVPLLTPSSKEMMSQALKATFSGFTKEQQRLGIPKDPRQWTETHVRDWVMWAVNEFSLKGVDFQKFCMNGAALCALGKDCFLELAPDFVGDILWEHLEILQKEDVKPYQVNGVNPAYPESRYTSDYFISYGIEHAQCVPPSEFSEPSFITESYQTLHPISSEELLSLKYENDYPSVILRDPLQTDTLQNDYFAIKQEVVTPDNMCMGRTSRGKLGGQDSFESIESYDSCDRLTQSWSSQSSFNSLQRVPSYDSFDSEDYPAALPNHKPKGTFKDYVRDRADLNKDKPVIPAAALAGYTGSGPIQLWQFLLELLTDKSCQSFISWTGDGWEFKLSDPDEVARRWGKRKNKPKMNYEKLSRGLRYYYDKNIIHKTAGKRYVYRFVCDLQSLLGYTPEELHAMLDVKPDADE
Put plainly: ETS1 binding intensity (PBM fluorescence), ETS1 alone (arbitrary fluorescence units); higher = stronger binding. To be noted: ETS1 concentration 1 nM; RUNX1 concentration 0 nM. In outline: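 Recombinant full-length human ETS1 was applied at 1 nM, without RUNX1, to double-stranded Agilent 4 × 180k arrays of 36-bp genomic probes carrying a mutated RUNX1 partner site, following standard PBM protocols. Detection used an anti-ETS1 antibody (Cell Signaling Technology 14069) and an Alexa488-conjugated secondary antibody, with scanning on a GenePix 4400A. Each sequence was printed as four replicate spots. Binding level is the spot fluorescence intensity, summarised across replicates and not normalised.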
Turning to CCCCTCCCCACACCAGAACAAACCGGATCCTTGCGC, the ETS1 binding intensity was 483.
As for ATAAACAGGAAGCTGAGTATGTGAGCACAGACATTC, the ETS1 binding intensity was found to be 7370.
As to CCCACCTCGGCCCACGCCGAGCGTGGCGGAACAGCT, the ETS1 binding intensity turned out to be 385.
Next, AGGTTTGTGAGTTCACTCTGGTATTTATTTCCTCTT: 559; GCACTGGAGGAAACTGCTCTCCCTTGCTGCTGGACG: 432; GCTCCTCCCGGATATAAAGCCCCAAAGCACGCCACT: 1760.
Next, GCCGCTGGAGCTTCGGGAAGCGGAAGTGCTCGTTGG: 2460; TTACCCCAGGAAAAGCCTCCTCACCCCAGTGACCAG: 454; GAGGGACAGGATGCCGCCAGGAACTACAAGAGCTTC: 2011 ± 16.
With TGGAAGAGGAAGGGGCGGAGCTGCTTTGGGGCCGGC the figure was 504.
In turn, TGTTTTCGCTCTTCCTGGCCTTGGGGGCAGCCAGGA had an ETS1 binding intensity of 1410.
Next, GCGCTGTACTGCGCCTTGTGCCGCTTCCGCCAGAAG: 829; CCCGAGGTCCAAAATCTGAGTAAAGCGGAAGTACGG: 2030.
Sequence CCACTGCTTTGTTTCCTCTCCAGATCGCGCATTTTG had an ETS1 binding intensity of 1410.
Next, TGTGCATGTGATTTTCGGGTATGTGATTTCCTCTTT: 539; CCACTGCCGTTGTAGGTAACGCGGACGTGGAAGAAC: 425; GCATCTGGGGGAAGTTACACAACGACAGCTGTGCAG: 596.
On to TGGGAACTTCCTGTGGAGGAGTGCATTGTTGGACTT, for which the ETS1 binding intensity was found to be 15500.
Next, TTGGCCTGGGCTCTGGGCCACTTCCTGTGCTCTCCA: 5490; AATGCAGCATTTCCTCTCCAGTTCACCAGAGGCCCC: 5490.
With CCATGCGCTGCTTCCTTCCACTTATCGCCCTCGCAC the figure was 1400; with CCACTAGCAGGAAAACGGGCCGAGGGACCCCAAGCA, 504; with AAATGTGTGTAGTTTCAGAACTTCCTCCCCACCTCC, 1020.
As to AGGTGGGAGGAAGTTCCTACCCCGGCGCGGAGTGCC, the ETS1 binding intensity was determined as 1510.
With TGGCCTCGGCCTGTAGACGCCCGGCTCCGGAAGTGC the figure was 687; with CGGGACTTCCTGTCTTCCCTGTCGCGGAGCTCTGAA, 27000; with CACTCCCCCATTCCGGCTGCAGGTTGGGGTTTGGAA, 400.
With CTCACTCTGGTGCTATACTTTGTTTCCTTTCTCTTT the figure was 599.
The sequence GCGGCCCTGTTTCCTAATCACCCCAGTCAGAACCGT showed an ETS1 binding intensity of 513 ± 8.3.
Next, TCGTCTCTTCCGGATCCCTCCTGCACCGCCTACAGC: 3480.
Next, CCGCGAACAGCAGAATTCCCGCCTTCCGCAGCCCGG: 480 ± 6.2; GCTGCCTCTGCCGTAAAGATGCCCCCTTCCGCTGGA: 432.
Next, CCTGAGGGCTGGGAGGCCAGGTCCTTTCCTGCCCAG: 408.
In turn, CCCACCCTCGCCGGAAGCCGAGCGGATTCTACATCA registered an ETS1 binding intensity of 3110.
With GAGAAGGGTGCGATCTAGGGAGGAGGAAGTGCAGGT the figure was 540; with TACCTAGACCCTTTCCGCCCTTACCGTGGCCAGACA, 1600.
Next, TTTCTGTGATTTGGTTTCTATAGAGACACTTCCTGT: 1600; GTCGCTGGGGTTGCCTGAAACAGGAAATCCTTCTGC: 1990; CCAACGCTCCCGGCAGCGCGTTCCGGAGCCGGTCCT: 341 ± 9.4.
Turning to GATGAGGGCTTGCGCGCAAACAGCCCGGAAATGAGG, the ETS1 binding intensity was found to be 1010.
Next, AGCTTTCCATCCGGGTCCCTGTCCGTGAGGTGCAGC: 1800; CGGGCCGGAATCACGATCCACCTCGCCGCGCTGGCT: 393; ACTTTGTCAGTGTAGTTTTCACATCCTGTCCTAGCT: 2870.
Next, GCCAGGCGCTCACAGGTTGGCAGGAAGAGCACTTAG: 527; AGCACGCCGGGAAATGGAGTCTCAGGTGGATTTTAA: 805.
With TCTTCCTCCTCGCTGTCGCGGCCGGACGGAGGGTGG the figure was 846; with AGGACCGGCTCCGGAACGCGCTGCCGGGAGCGTTGG, 290 ± 3.4.
With CTCCCCCGTACATAGCCCTGAACTGAGGAAGTCATC, the ETS1 binding intensity stood at 368.
Consider GCTTCTGAGGAAGTGCGTTTTGAGGGTAGGTGGAGT, for which the ETS1 binding intensity came out at 724.
Next, GGGCCCCCGGAAAGAGCTTTGGCCGCTCGAGCCTGC: 703; GAAGTGTGCTCTTCCGGTACCTGCTGTTCGTTGCGC: 11600.
Next, CTTGGGGTCCCATCTTGCTTTTTTCTTCCGCTTTCC: 448.
With AGACCCGGATATGCGCCGGGGACCCCCAGATCGCGC the figure was 3230; with TGTTAAAATGTGAGCAGCAAGAAAGGAAATAGTGTT, 461; with CTGTTTCCGAGTAAAGTAGGGTGTCTGGGTCACATG, 1280.
CCGCCTCCGGAAGAATTCTCTTCGGGCATGTTGCTG gave an ETS1 binding intensity of 1030.
Next, GCCCCTAAACCGGATGCGGCAGCCACCGTGGACCCC: 11100; GCAGGCGAAGGCGGAACTGGCGTGGGCAAACCAACC: 463; ACAGAGAAACTACAGCCCTGAGCCTCTTCCTGACAT: 382.
Regarding GCGCCCGGCCCCGCGCACGCACCATTTCCTGGCTTC, the ETS1 binding intensity is 734.
With ATGCTGTAGGTCCACTCCCTGCCACCTGCTTCCTGC the figure was 474.
With CTGTCTTGGTGTTCTGTTCTTATTTTAGTTTCCTGT the figure was 780.
